Experimental data as given in PubChem BioAssay AID894 (National Center for Advancing Translational Sciences (NCATS), 2007).
Values joined by “and” are separate entries in the source; they are usually repeats but may differ in a detail not shown here. Equal values may be shown once. Among all 150,000 compounds or so, about 6,500 (4.3%) were called active. Inconclusive results, whose numbers are uncertain, are shown with a selection of clear calls. Calls follow the shape of the dose curve; as a rule, active = well fitted inhibition curve with a large enough effect (not every such curve was filed as active); inconclusive = small, poorly fitted or top-dose-only effect, or another doubt; inactive = no such curve, though single readings can be large or run the other way. Where the call is inconclusive, the potency comes from a doubtful curve fit. Where a structure was tested more than once in an assay, its records may differ in their call.

These compounds were tested against 15-hydroxyprostaglandin dehydrogenase [NAD(+)] (Homo sapiens) (UniProt P15428) (assay: qHTS Assay for Inhibitors of HPGD (15-Hydroxyprostaglandin Dehydrogenase)). Details: purified HPGD, NADH fluorescence kinetic, PGE2 substrate; activity change, negative = inhibition: stronger effect = lower value.
In short: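 NADH formation kinetics: reaction with 30 uM PGE2 and 1 mM NAD+ (final), 20 nM enzyme, Tris-HCl pH 8 with Tween 20, after 15 min compound preincubation at room temperature. Fluorescence change, last versus first of five reads.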
% is scaled to controls: 0 for no effect and ±100 for the full control effect; potency is read from the fitted curve at half-maximal effect; tags tell the direction and shape of the fitted curve.

UniProt P15428, sequence (P15428 whole entry, looked up): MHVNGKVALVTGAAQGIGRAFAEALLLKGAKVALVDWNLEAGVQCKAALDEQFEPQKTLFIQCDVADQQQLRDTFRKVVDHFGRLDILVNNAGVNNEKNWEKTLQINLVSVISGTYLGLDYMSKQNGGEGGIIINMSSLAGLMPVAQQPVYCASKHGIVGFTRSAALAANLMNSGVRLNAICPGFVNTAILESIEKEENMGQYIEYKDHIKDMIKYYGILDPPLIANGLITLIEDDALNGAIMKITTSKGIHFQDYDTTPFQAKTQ

Row | Structure (SMILES) | Potency | activity change, negative = inhibition
1 | N#Cc1c(Cl)nc(Cl)c2c1CCN(Cc1ccccc1)C2 | inconclusive: 28.2 µM [inhibitor, partial curve] | 
2 | CC/C=C\C/C=C\C/C=C\C/C=C\C/C=C\CCCC(=O)NCC(=O)O |  | inactive: -6.58%
3 | C[C@@H](CO)NC(=O)[C@@H]1C=C2c3cccc4[nH]cc(c34)C[C@H]2N(C)C1 | inconclusive: 35.5 µM [inhibitor, partial curve] | 
4 | O=C(O)c1cccc2c1NC(C(=O)O)C1CC(Sc3ccccc3[N+](=O)[O-])C(Cl)C21 (configuration not stated) | inconclusive: 12.6 µM [inhibitor, partial curve] | 
5 | CCOC(=O)c1c(C)n(Cc2ccco2)c2ccc(O)cc12 | active: 22.4 µM | 
6 | CC(C)NS(=O)(=O)c1ccc(OCC(=O)N2CCN(Cc3ccccc3)CC2)c(Cl)c1 |  | inactive: -5.18%
7 | Cc1noc(C)c1CSc1nc2cc(S(=O)(=O)N3CCOCC3)ccc2o1 | active: 7.94 µM | 
8 | FC(F)(F)c1ccc2c(c1)ncn2C1CCN(Cc2nnnn2C2CCCCC2)CC1 | inconclusive: 35.5 µM [inhibitor, single point] | 
9 | C=CCOC(=O)COc1cc(C)cc2oc(=O)c3c(c12)CCC3 | inconclusive: 0.199 µM [inhibitor, full curve] | 
10 | O=c1[nH]c(=S)n(Cc2ccc(F)cc2)c(O)c1C=NCC1CCCO1 (configuration not stated) | active: 28.2 µM | 
11 | COc1cc2c3c(c1OC)-c1cc(O)ccc1CC3NCC2 (configuration not stated) | inconclusive: 31.6 µM [inhibitor, partial curve] | 
12 | CCC(=NCc1ccco1)c1c(O)n(Cc2ccccc2)c(=O)[nH]c1=O | active: 15.8 µM | 
13 | Cc1ccc(Cl)cc1N1CCN(C(=O)c2cn(C)c(=O)c3c2c2ccccc2n3C)CC1 | inconclusive: 28.2 µM [inhibitor, partial curve] | 
14 | OCCOCC#CCN1CCOCC1 |  | inactive: -3.22%
15 | C[C@]12CN(CC[N+](C)(C)C)C[C@]1(C)[C@@H]1CC[C@@H]2O1 |  | inactive: 1.82%
16 | Cc1ccccc1-n1c(O)c(/C=C2/C(c3ccccc3)=Nc3ccccc32)c(=O)[nH]c1=O | active: 28.2 µM | 
17 | Cc1cc(SCc2sc(-c3ccc(C(F)(F)F)c(F)c3)nc2C)ccc1OCC(=O)O | active: 10 µM | 
18 | Cc1ccc(S(=O)(=O)N[C@@H](CCCCN)C(=O)CCl)cc1 | inconclusive: 31.6 µM [inhibitor, single point] | 
19 | N#CCCn1cc(C(=O)Nc2ccccc2Cl)c(-c2ccc([N+](=O)[O-])cc2)n1 |  | inactive: -15.2%
20 | C=CCN |  | inactive: -13.1%
21 | CC1/C=C/C=C/CC/C=C/C=C/C=C/C=C/C(OC2OC(C)C(O)C(N)C2O)CC2O[C@](O)(CC(O)C(O)CCC(O)CC(O)CC(O)CC(=O)OC(C)C(C)C1O)CC(O)C2C(=O)O (some centres not stated) |  | inactive: -5.95%
22 | O=c1[nH]c(=S)n(-c2ccccc2)c(O)c1/C=N/N1CCOCC1 |  | inactive: -18.9%
23 | O=C1CN=C(c2ccccc2)c2cc([N+](=O)[O-])ccc2N1 | active: 25.1 µM | 
24 | O=C(Nc1cccc(Cl)c1)c1c(O)c2c(n(Cc3ccco3)c1=O)CCCC2 | inconclusive: 20 µM [inhibitor, partial curve] | 

Row | Structure (SMILES) | Potency | activity change, negative = inhibition
25 | COc1ccc(N2C(=O)NC(=O)/C(=C/c3cccc(OC(=O)c4cccs4)c3)C2=O)cc1Cl | active: 31.6 µM | 
26 | CC(C)(O)[C@H]1O[C@@H]2CC[C@]3(C)[C@@]4(C)c5[nH]c6ccccc6c5C[C@@H]4CC[C@]3(O)C2=CC1=O |  | inactive: -6.05%
27 | CC(C)CC(=O)C[C@H](O)C(Cl)(Cl)Cl |  | inactive: -11.8%
28 | CC(N=Cc1c(O)[nH]c(=O)[nH]c1=O)c1ccccc1 (configuration not stated) | active: 28.2 µM | 
29 | Cc1ccccc1CS(=O)(=O)Cc1ccc(C(=O)N2CCC3(CC2)OCCO3)o1 |  | inactive: -2.51%
30 | CCCCC/C=C\C/C=C\C/C=C\C/C=C\CCCC(=O)Nc1ccc(O)cc1 | active: 35.5 µM | 
31 | CC1CCN(C(=O)c2ccc(N3CC4CC(C3)c3cccc(=O)n3C4)c([N+](=O)[O-])c2)CC1 (configuration not stated) |  | inactive: -19.1%
32 | CC(C)Cc1[nH]c(=O)c(C#N)c2c1CCC2 | inconclusive: 31.6 µM [inhibitor, partial curve] | 
33 | CN1CCN(C(=O)COc2ccc(S(=O)(=O)N(C)Cc3ccccc3)cc2)CC1 | active: 14.1 µM | 
34 | CC(=O)O/C(=C1/C[C@H]2[C@@H]3CC=C4C[C@@H](OC(C)=O)CC[C@]4(C)[C@@H]3CC[C@]2(C)C1=O)C(F)(F)F |  | inactive: -7.18%
35 | COCCNC(=O)c1c(N)n(Cc2ccco2)c2nc3ccccc3nc12 | inconclusive: 31.6 µM [inhibitor, partial curve] | 
36 | S=c1[nH]nc(-c2ccco2)n1/N=C/c1cccs1 | active: 28.2 µM | 
37 | Cc1c(N=Cc2c(O)n(Cc3ccccc3)c(=O)[nH]c2=O)c(=O)n(-c2ccccc2)n1C | inconclusive: 39.8 µM [inhibitor, single point] | 
38 | CC1=C(C(=O)OC(C)C)[C@]2(C(=O)N(CC(N)=O)c3ccccc32)C(C#N)=C(N)O1 |  | inactive: -8.03%
39 | C=C1CC[C@H](O)C/C1=C/C=C1\CCC[C@]2(C)[C@@H]([C@H](C)CCCC(C)C)CC[C@@H]12 |  | inactive: -10.4%
40 | O=C1NC(=O)C2(Cc3ccccc3N3CCCC32)C(=O)N1c1ccc(Cl)cc1 (configuration not stated) | inconclusive: 31.6 µM [inhibitor, partial curve] | 
41 | CCCCCCn1c(O)c(C=NCCCn2ccnc2)c(=O)[nH]c1=O |  | inactive: -2.3%
42 | C=CCO |  | inactive: -8.48%
43 | CN(C)CCC(C#N)(c1ccccc1)c1ccccc1 |  | inactive: -7.78%
44 | CCCCC/C=C\C/C=C\C/C=C\C/C=C\CCCC(=O)NCCO |  | inactive: -6.34% and inactive: -17.3% and inactive: -10.9%
45 | O=C1CCC[C@H]2[C@@H]3CCCN4CCC[C@H](CN12)[C@H]34 |  | inactive: -11.1%
46 | CCCCn1c(O)c(C(CC)=Nc2ccc(OC)cc2OC)c(=O)[nH]c1=O | active: 15.8 µM | 
47 | COc1cc(/C=C2/C(=O)N(c3ccccc3)N=C2C)ccc1OS(=O)(=O)c1ccccc1 | active: 20 µM | 
48 | Cc1cc(N2CCCCC2)ccc1C=C1C(=O)N(C)C(=S)N(C)C1=O | active: 14.1 µM | 

Row | Structure (SMILES) | Potency | activity change, negative = inhibition
49 | Nc1nc2c(ncn2[C@@H]2O[C@H](CO)[C@@H](O)[C@@H]2O)c(=[SH+])[nH]1.O=[N+]([O-])c1ccc(O)[c]([Hg])c1 | active: 0.0251 µM | 
50 | Cc1cc(OCc2cc(C(=O)O)oc2C)c2c3c(c(=O)oc2c1)CCCC3 | inconclusive: 31.6 µM [inhibitor, partial curve] | 
51 | CC(C)NC(C)C |  | inactive: -8.21%
52 | CC(=O)OC1CCC23C(=O)OC45CCC(C6=CC(=O)OC6)C4(C)CCC2C5CCC3(O)C1 (configuration not stated) |  | inactive: 0.256%
53 | CCCCCCCSc1cc(OC)c(CCN(C)C)cc1OC |  | inactive: -21.2%
54 | CN1CC[C@@]2(C)c3cc(O)ccc3N(C)[C@@H]12 |  | inactive: 11.3%
55 | C/C=C1\C[N@@+]2(C)CC[C@@]34C(=C(C=O)[C@H]1C[C@H]32)Nc1ccccc14 | active: 15.8 µM | 
56 | Cc1ccc(C(=O)c2ccc(CC(=O)O)n2C)cc1 | active: 15.8 µM | 
57 | Cc1ccccc1-n1c(O)c(/C=N/c2nccs2)c(=O)[nH]c1=O |  | inactive: -12.2%
58 | Nc1cc(Cl)ccc1O | active: 10 µM | 
59 | CCN1C[C@]2(C)CC[C@H](O)[C@@]34[C@@H]5CC6[C@@H](OC)C[C@@](O)([C@@H]5[C@@H]6O)[C@H](C[C@@H]23)[C@H]14 |  | inactive: -6.3%
60 | C=C(C)CSc1nnc([C@@H](N)Cc2c[nH]c3ccccc23)o1 | inconclusive: 31.6 µM [inhibitor, single point] | 
61 | Cc1[nH]ccc2c1[nH]c1cc(=O)ccc12 | inconclusive: 12.6 µM [inhibitor, partial curve] and inconclusive: 28.2 µM [inhibitor, partial curve] and inconclusive: 35.5 µM [inhibitor, partial curve] | 
62 | COc1cccc(-c2cc(C(F)(F)F)n3nc(C(=O)N4CCC5(CC4)OCCO5)cc3n2)c1 | active: 11.2 µM | 
63 | FC(F)(F)c1nc2ccc(SSc3ccc4nc(C(F)(F)F)[nH]c4c3)cc2[nH]1 | active: 3.98 µM | 
64 | O=C(c1ccc(CNS(=O)(=O)c2ccccc2)cc1)N1CCC2(CC1)OCCO2 | inconclusive: 35.5 µM [inhibitor, single point] | 
65 | CC(=O)Oc1c2c(c(CC=C(C)C)c3c1C(=O)C1=CC4CC5C(C)(C)OC(C/C=C(\C)C(=O)O)(C4=O)[C@]15O3)OC(C)(CCC=C(C)C)C=C2 (some centres not stated) | active: 28.2 µM | 
66 | O=S(=O)(O)c1cc(N=C=S)ccc1/C=C/c1ccc(N=C=S)cc1S(=O)(=O)O | inconclusive: 28.2 µM [inhibitor, partial curve] | 
67 | CCn1c(O)c(/C=N/NC(=O)c2ccncc2)c(=O)[nH]c1=S | inconclusive: 28.2 µM [inhibitor, partial curve] | 
68 | Cc1ccc(S(=O)ON2CCC(C(=O)O)(c3ccccc3)CC2)cc1 (configuration not stated) |  | inactive: -9.45%
69 | O=C(NCc1cccs1)c1ccc(Br)o1 | active: 20 µM | 
70 | Nc1c(C(=O)OCc2ccccc2)c2nc3ccccc3nc2n1Cc1cccs1 | inconclusive: 31.6 µM [inhibitor, partial curve] | 
71 | CN(C)C1C(=O)C(C(N)=O)C(=O)C2(O)C(=O)C3C(=O)c4c(O)cccc4C(C)(O)C3C(O)C12 (configuration not stated) | inconclusive: 25.1 µM [inhibitor, partial curve] | 
72 | CC(C)CCOC(=O)c1c(N)n(CC2CCCO2)c2nc3ccccc3nc12 (configuration not stated) | inconclusive: 14.1 µM [inhibitor, partial curve] | 
